# Out of some 150,000 compounds screened, about 540 (0.36%) showed an effect of 50% or more. Some of the results follow.
# System: Plasmodium falciparum
# Test: Primary screen in NF54 nanoGlo assay, in single point, at 2uM, 72h; a lower Z score goes with more inhibition
# Assay type: functional, Erythrocyte
# Details: timepoint 72 hour
SMILES,% Inhibition [%],Z score
CCOC(=O)N1CCC(n2cnc3cccnc3c2=O)CC1,4,-0.57
CCOc1ccc(N(C)CCN2CCCC2=O)nn1,4,-0.49
CC(C)=C1C2CCC1C(C(=O)NCCc1ccccc1)C2C(=O)O (configuration not stated),-4,0.5
NC(=O)c1ccn(-c2cccc(NS(=O)(=O)c3ccc(C(=O)NCC(F)(F)F)cc3)c2)n1,8,-1.5
CCc1cc(=O)c2cc(NS(=O)(=O)c3cccc(COC)c3)ccc2[nH]1,0,-0.03
CC1=CC(C)C(C2OCCN2CC2COC3(CCCCC3)O2)C(C)C1 (configuration not stated),3,-0.51
Cc1cc(C)n(Cc2c(C(=O)N3CCCCC3)noc2C)n1,4,-0.43
Cc1ccc2c(c1)N(C)C(=O)c1cc(NC(=O)C3CCN(S(C)(=O)=O)CC3)ccc1O2,-9,1.36
Cc1noc(C)c1CN1CC2(CCN(C(=O)[C@H]3CCCO3)CC2)CC1=O,-20,2.38
O=C1NC(=O)C2(CCN(C(=O)c3cn4ccccc4n3)CC2)N1,-12,2.32
COc1ccc(-c2nc(N3CCCCC3)nc3nn4c(C)cc(C)nc4c23)cc1,-10,1.62
COC1CC2C(=O)N(C3CCN(c4ccc(Cl)cc4)C3)C(=O)N2C1 (configuration not stated),-11,1.65
CC(C)(CC(=O)N[C@@]1(C)CCS(=O)(=O)C1)C(F)(F)F,-15,1.3
CC(C)(C)OC(=O)NCCCN1Cc2ccccc2C1,-2,0.27
Cc1cc(CN(C)C(=O)C[C@@H](c2cccc(O)c2)c2ccccc2Cl)on1,-14,1.64
CC(C)c1noc([C@H](C)N2CCCC2)n1,3,-0.4
c1sc(C2CC2)nc1CN1CCC(=C2CC2)CC1,-11,1.82
CCCc1noc(CN(C)[C@H]2CS(=O)(=O)c3ccccc32)n1,-13,1.51
C#Cc1ccc(COC(=O)c2sc(COC)nc2C)cc1,-20,2.53

SMILES,% Inhibition [%],Z score
Cc1cc2[nH]c(CN3CCCC[C@H]3c3nccs3)cc(=O)n2n1,1,-0.22
CN(Cc1nccs1)c1nc(N)nc2c1CCCC2,8,-1.09
COc1ccnc(-c2ccc(F)c3cccnc23)c1,-4,0.58
CCN(CCc1nccs1)C(=O)CN1CCCCC1=O,-5,0.85
Cc1ccc(Cl)cc1N1CCN(C(=O)N2CCC(C)CC2)CC1,0,-0.01
CCOc1cnc(C(=O)N2C[C@@H]3CCCN3c3ccccc32)cn1,-6,0.83
Cc1nnc(CC(=O)Nc2cn(CC(C)C)nc2C(F)F)s1,-7,0.99
COc1ccc(OC)c(N2CCN(C(=O)c3ccc(F)cc3)[C@@H](C)C2=O)c1,-1,0.17
COc1cccc(NC(=O)CN2C(=O)NC3(CCCCCCC3)C2=O)c1,-13,1.88
CN(C)Cc1ccccc1C(=O)N[C@H]1CCCn2ncnc21,-7,1.43
Cc1ccc(CNC(=O)Cn2nc3c4cccc(C)c4ncn3c2=O)cc1,-6,1.03
CC(=O)[C@@H]1CCCCN1S(=O)(=O)Cc1nocc1C,4,-0.55
C[C@H]1CNc2c(Nc3ncnc4ccsc34)cnn2C1,6,-0.83
O=C(O)CN1CCC[C@@H]1CCCc1ccccc1,-4,0.47
c1nc2nc(C3CC3)cc(NCCN3CCOCC3)n2n1,-11,2.03
CCOC(=O)c1cc(S(=O)(=O)NCCO)cnc1C(F)(F)F,-8,1.05
CC(C)COc1ccc(NC(=O)N[C@H]2CC[C@@H](C(=O)O)C2)cn1,-1,0.11
Cc1cc(NC(=O)N(C)C2CCNCC2)c(Cl)cc1F,-4,0.79
COCC(C)(C)CN[C@@H](C)C1=Cc2ccccc2OC1,-12,1.31

SMILES,% Inhibition [%],Z score
CC1CCCC(c2noc(CS(=O)(=O)C3CC3)n2)C1 (configuration not stated),3,-0.45
CC[C@@H](CC#N)NC(=O)c1ccccc1OC1CC1,1,-0.1
CC(NCC(=O)Nc1ccnn1C1CCCC1)C(C)n1cccn1 (configuration not stated),-17,1.47
Cc1nc(-c2ccc(C)c(S(=O)(=O)NCC(=O)N3CCCC3)c2)no1,-10,1.17
CCCN1CCCN(Cc2ccc3ccccc3n2)CC1=O,-16,2.35
Cc1cc(CN(C)C2CCCCCC2)on1,13,-1.49
Cc1cccnc1NCCNc1cc([C@H]2C[C@H](N)C2)nc(C2CC2)n1,1,-0.13
Cc1ccc(C)c(N(C(=O)[C@H]2CCCN(C(=O)c3cccs3)C2)C(C)C)c1,0,-0.05
O=C(Nc1cc(Cl)cc(Cl)c1)N1CCC2CCNC2C1 (configuration not stated),3,-0.57
Cn1c(CNC(=O)c2cc[n+]([O-])cc2)nc2ccc(F)cc21,2,-0.37
COc1cc(CN2CCN3C(=O)CNC(=O)[C@@H]3C2)ccc1OCC=C(C)C,-7,1.41
CN=C(NCc1nc(C)no1)N1CCN(c2cccc(C)c2C)CC1,12,-1.76
Cc1cnccc1CCNC(=O)NC1CCOC(C(C)(C)C)C1 (configuration not stated),-8,0.77
O=C(Nc1ccc(N2CCOCC2)cc1)C1CCN(c2cnc3nccnc3c2)CC1,-5,0.91
CC(C)n1ccnc1CN1CCn2nc(CNS(C)(=O)=O)cc2C1,-1,0.09
O=C(c1ccc2[nH]nnc2n1)N1CCC(F)(c2ccccc2C(F)(F)F)CC1,-12,1.79
C=CCN(CC#Cc1ccccc1)Cc1ccoc1,2,-0.25
CCc1n[nH]cc1C(=O)N[C@H]1COCC[C@@H]1OCc1ccccn1,-8,1.05

# — ChEMBL document CHEMBL4888484, “Replenishing the malaria drug discovery pipeline: Screening and hit evaluation of the MMV Hit Generation Library 1 (HGL1) against asexual blood stage Plasmodium falciparum ,using a nano luciferase reporter read-out” (2022)
